The campaign covered roughly 310,000 compounds. About 18,000 (5.8%) were called active. The inconclusive results got no clear call from the source; some entries with a clear call stand among them for comparison. The call rests on the fitted dose curve; in most records, active means well fitted inhibition curve with a large enough effect; inconclusive means small, poorly fitted or top-dose-only effect, or another doubt; inactive means no such curve, though single readings can be large or run the other way. No potency is given beside an inconclusive call; the fits are too rough.
Experiment: Primary qHTS for delayed death inhibitors of the malarial parasite plastid, 48 hour incubation
Conditions: P. falciparum luciferase growth in erythrocytes; series mostly up to 28.7 µM; activity change, negative = inhibition: at the top concentration
Outline: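 Luciferase-expressing parasites in RBCs, 2% Hct / 0.1% parasitemia final; RPMI 1640 + 0.5% Albumax; 37 C, 5% CO2, one generation; luminescence read-out, lower signal = inhibition.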
On the % scale 0 is the no-effect control and ±100 the full control effect; potency means the concentration at half of the fitted maximal effect; tags describe the fitted curve by direction and shape.

| Structure (SMILES) | Potency | activity change, negative = inhibition |
| --- | --- | --- |
| O=C(Nc1ccccc1)c1ccc2c(c1)CCN2S(=O)(=O)c1ccccc1 | active: 3.7 µM |  |
| O=S(=O)(c1ccc(F)cc1)N1CCN(CC2CC3C=CC2C3)CC1 (stereo not given) | inconclusive [inhibitor, single point] |  |
| Cc1cc(=O)[nH]c(-n2nc(C)cc2C)n1 | inconclusive [inhibitor, single point] |  |
| Cc1ccc(-c2noc(C3CCN(S(=O)(=O)c4ccc5c(c4)OCCO5)CC3)n2)o1 | inconclusive [inhibitor, single point] |  |
| CCOC(=O)COc1cc(OCC(=O)OCC)c2c(=O)cc(-c3ccccc3)oc2c1 | inconclusive [inhibitor, single point] |  |
| NC(N)=NCC(O)CN(c1ccccc1)c1ccccc1 (stereo not given) | active: 1.17 µM |  |
| CC[C@]12CCCN3CCc4c(n(c5ccccc45)[C@](O)(C(=O)OC)C1)[C@@H]32 | inconclusive [inhibitor, single point] |  |
| Cc1noc(C)c1S(=O)(=O)N1CCC(C(=O)N2CCN(c3ccccc3Cl)CC2)CC1 | inconclusive [inhibitor, single point] |  |
| CCC(=O)Oc1ccc(C2N(C(=O)CC)CCN2S(=O)(=O)c2ccc(C)cc2)cc1OC (stereo not given) | inconclusive [inhibitor, single point] |  |
| Cc1cc(NC(=O)CSc2nc(=O)cc(N)n2-c2ccc(F)cc2)no1 | inconclusive [inhibitor, partial curve] |  |
| C=CCNc1cnn(-c2ccc(C)cc2)c(=O)c1Sc1ccc(C)cc1 | inconclusive [inhibitor, single point] |  |
| Cn1c(CCN2CCCCC2)nc2cc(NC(=O)COc3ccc([N+](=O)[O-])cc3)ccc21 | inconclusive [inhibitor, full curve] |  |
| CCN(CCCNC(=O)C1CCN(S(=O)(=O)c2cnc[nH]2)CC1)c1cccc(C)c1 | inconclusive [inhibitor, single point] |  |
| Cc1ccc(NC(=S)N(CCN2CCOCC2)Cc2ccccc2F)cc1Cl | active: 11.7 µM |  |
| CC(=O)Nc1ccc(S(=O)(=O)/N=C2\C(=O)c3ccccc3C([O-])=C2n2cc[n+](-c3ccccn3)c2)cc1 | active: 1.47 µM |  |
| Cc1sc(NC(=O)c2ccco2)c(C(c2ccc(F)cc2)N2CCN(C)CC2)c1C (stereo not given) | inconclusive [inhibitor, partial curve] |  |
| O=C(c1cccc(NS(=O)(=O)c2ccc(Br)cc2)c1)N1CCN(c2ccccc2O)CC1 | inconclusive [inhibitor, single point] |  |
| Cn1c(=O)n(C)c2cc(N3CCOCC3)c(NC(=O)c3ccc(F)cc3)cc21 | inconclusive [inhibitor, single point] |  |
| Cc1nn(-c2ccccc2)c(C)c1CN(C)C(=O)c1ccc(S(=O)(=O)NCc2ccco2)cc1 | inconclusive [inhibitor, single point] |  |
| COc1ccc(C(=O)COC(=O)C(CCSC)NC(=O)COc2ccccc2)cc1 (stereo not given) |  | inactive: 19.7% |
| O=S(=O)(O)NC1CCCCC1 | inconclusive [inhibitor, partial curve, poor fit] |  |
| O=C(COc1ccc2cc(Br)ccc2c1)N1CCCC1 |  | inactive: 19.6% |
| COc1ccc(-c2nnc(-c3ccccc3O)o2)cc1 |  | inactive: 15% |
| CC(=O)N1CCC(N(CCN2CCOCC2)C(=S)Nc2cc(C)cc(C)c2)CC1 | inconclusive [inhibitor, full curve, poor fit] |  |

| Structure (SMILES) | Potency | activity change, negative = inhibition |
| --- | --- | --- |
| COc1ccc(S(=O)(=O)N(C)CC(=O)NCCc2ccccc2)cc1OC | inconclusive [inhibitor, partial curve] |  |
| N#Cc1cc2c(nc1SCc1ccccc1)CCCCC2 |  | inactive: -16.6% |
| O=C(O)c1cc(S(=O)(=O)N2CCN(C(c3ccccc3)c3ccccc3)CC2)ccc1Cl | active: 11.7 µM |  |
| S=C(NCCN(C1CCCCC1)C1CCCC1)Nc1cccc(Cl)c1 | active: 2.94 µM |  |
| O=C(c1ccccc1)c1ccccn1 | inconclusive [inhibitor, single point] |  |
| NC(=O)CC(NC(=O)Cc1ccc(Cl)cc1)c1ccc(NCCOc2ccccc2)c([N+](=O)[O-])c1 (stereo not given) | inconclusive [inhibitor, single point] |  |
| Cc1ccc(CS(=O)Cc2ccc(C(=O)N3CCN(c4ccccn4)CC3)o2)cc1 (stereo not given) |  | inactive: -18.1% |
| COC(=O)Nc1sccc1C(=O)Nc1sccc1C(=O)OC | inconclusive [inhibitor, single point] |  |
| COc1cc(NC(=O)CCCc2c[nH]c3ccccc23)cc(OC)c1 |  | inactive: -7.35% |
| Cc1cc(C)nc(NS(=O)(=O)c2ccc(NC(=O)CN3C(=O)C4CC=CCC4C3=O)cc2)n1 (stereo not given) | inconclusive [inhibitor, partial curve] |  |
| O=C(NCc1ccco1)C1(S(=O)(=O)c2ccc(Cl)cc2)CC1 | inconclusive [inhibitor, full curve, poor fit] |  |
| CCc1c(C)c(C#N)c2nc3ccccc3n2c1NCCN(C)C | active: 9.28 µM |  |
| Cc1c(C(N)=O)sc2nc(-c3ccccc3)cn12 |  | inactive: 97.5% |
| Fc1cccc(CSc2ccc3nnc(-c4ccccn4)n3n2)c1 | inconclusive [inhibitor, single point] |  |
| CN(C)C(=S)NC1(C)CCS(=O)(=O)C1 (stereo not given) | inconclusive [inhibitor, partial curve, poor fit] |  |
| CCOC(=O)C1CCN(C(=O)COC(=O)C2CCN(S(=O)(=O)c3ccc4c(c3)OCCO4)CC2)CC1 | active: 13.1 µM |  |
| C/C(CCc1ccc2c(c1)OCO2)=N\NC(=S)NC(C)C | inconclusive [inhibitor, single point] |  |
| Cc1ccc(OCc2ccc(C#N)cc2)c(C(=O)c2cc(C#N)c(=O)n(C3CC3)c2)c1 | inconclusive [inhibitor, full curve] |  |
| Cc1[nH]nc2nc(SCC(=O)NCC3CCCO3)n(-c3ccc(Br)cc3)c(=N)c12 (stereo not given) | active: 10.4 µM |  |
| Cc1ccccc1-n1c(=O)n(Cc2ccccc2)c(=O)c2[nH]cnc21 |  | inactive: 10.5% |
| CC(C)OCC1CC(CC(=O)Nc2ccc([N+](=O)[O-])cc2)C(=O)O1 (stereo not given) |  | inactive: 48.9% |
| CC(C)CCn1c(CN2CCN(Cc3ccccc3)CC2)nc2c1c(=O)[nH]c(=O)n2C | inconclusive [inhibitor, partial curve, poor fit] |  |
| N#Cc1ccccc1NC(=O)CSc1nnc(-c2ccccc2)n1-c1ccccc1 | inconclusive [inhibitor, single point] |  |
| Cc1ccc(NC(=O)CN2C(=O)NC(C)(C3CC3)C2=O)c([N+](=O)[O-])c1 (stereo not given) |  | inactive: -3.3% |

| Structure (SMILES) | Potency | activity change, negative = inhibition |
| --- | --- | --- |
| COc1ccc(-c2cc(C(=O)N3CC4(C)CC3CC(C)(C)C4)no2)cc1OC (stereo not given) | active: 0.928 µM |  |
| O=C(Nc1cc(Cl)cc(Cl)c1)C1CCC(=O)N1Cc1ccccc1Cl (stereo not given) | active: 9.28 µM |  |
| CCOC(=O)c1nc(C)sc1-c1ccnn1S(=O)(=O)c1ccccc1C(F)(F)F |  | inactive: -28.2% |
| S=C(NCC1CCCCC1)Nc1ccc(Oc2ccccc2)cc1 |  | inactive: -24.9% |
| O=C1c2ccccc2C2(c3cc(C(F)(F)F)cc(C(F)(F)F)c3)NCCN12 (stereo not given) | inconclusive [inhibitor, single point] |  |
| COc1ccc(-c2csc3ncnc(N4CCN(S(=O)(=O)c5ccccc5C#N)CC4)c23)cc1 | inconclusive [inhibitor, partial curve, poor fit] |  |
| O=C(CSc1ccc2ccccc2c1)Nc1ccncc1 |  | inactive: 5.15% |
| c1ccc(C[n+]2ccccc2)cc1 | inconclusive [inhibitor, partial curve, poor fit] |  |
| O=C(CSc1ccc(Cl)cc1)Nc1cccc(-c2nc3ccccc3[nH]2)c1 | active: 3.7 µM |  |
| CC(NC(=O)Cc1ccc(NS(=O)(=O)c2cccc(C(F)(F)F)c2)cc1)c1ccccn1 (stereo not given) | inconclusive [inhibitor, single point] |  |
| O=C(Nc1cccc(S(=O)(=O)N2CCOCC2)c1)c1ccc(N2CCCC2=O)cc1 | inconclusive [inhibitor, partial curve, poor fit] |  |
| CC(=O)CCc1c(C)c2cc(C)ccc2[nH]c1=O |  | inactive: 5.58% |
| O=C(CSc1nnc(Cc2cccs2)n1C1CCCCC1)N1CCCc2ccccc21 | inconclusive [inhibitor, single point] |  |
| COCCNC(=O)/C(C#N)=C/c1cccc(/C=C(\C#N)C(=O)NCCOC)c1 | inconclusive [inhibitor, partial curve, poor fit] |  |
| C=CCOc1ccc(CN(C)C(=O)CNC(=O)c2ccc(-c3ccccc3)cc2)cc1 | active: 13.1 µM |  |
| O=C(Nn1cnc2ccccc2c1=O)c1ccc(Br)cc1 |  | inactive: 18.1% |
| CCN1C(=O)[C@H]2[C@@H](c3ccc(-c4ccccc4)cc3)N3CCCC[C@@]3(C(=O)OC)[C@H]2C1=O | active: 10.4 µM |  |
| COc1cc(C(=O)NC(=S)NCc2ccco2)cc(OC)c1OC | inconclusive [inhibitor, full curve] |  |
| Cc1ccc(NC(=O)c2cnccn2)c(OC(F)F)c1 | inconclusive [inhibitor, single point] |  |
| CCC(C)c1ccccc1N1CC(C(=O)N2CCN(S(=O)(=O)c3ccccc3Br)CC2)CC1=O (stereo not given) | inconclusive [inhibitor, single point] |  |
| Cc1ccc(C(=O)c2c(NC(=O)c3ccncc3)sc3c2CCCC3)cc1 | active: 6.57 µM |  |
| COc1ccc(N(CC(=O)NCc2ccccc2C)S(=O)(=O)c2ccc(C)cc2)cc1OC | inconclusive [inhibitor, partial curve] |  |
